Data as given in paper PMC4336329 (PLoS ONE, 2015).
The whole screen tested about 310,000 compounds, of which about 14,000 (4.5%) showed an effect of 50% or more. The effect is printed as a negative number. This is one part of the list.

biological target: human ether-à-go-go-related gene (hERG) potassium channel (human, UniProt Q12809); assay: primary screen, population patch clamp on CHO cells stably expressing hERG
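Note: peak tail current of the secondary pulse compared with the same well before compound.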

Chain of human ether-à-go-go-related gene (hERG) potassium channel (Q12809 whole entry, looked up): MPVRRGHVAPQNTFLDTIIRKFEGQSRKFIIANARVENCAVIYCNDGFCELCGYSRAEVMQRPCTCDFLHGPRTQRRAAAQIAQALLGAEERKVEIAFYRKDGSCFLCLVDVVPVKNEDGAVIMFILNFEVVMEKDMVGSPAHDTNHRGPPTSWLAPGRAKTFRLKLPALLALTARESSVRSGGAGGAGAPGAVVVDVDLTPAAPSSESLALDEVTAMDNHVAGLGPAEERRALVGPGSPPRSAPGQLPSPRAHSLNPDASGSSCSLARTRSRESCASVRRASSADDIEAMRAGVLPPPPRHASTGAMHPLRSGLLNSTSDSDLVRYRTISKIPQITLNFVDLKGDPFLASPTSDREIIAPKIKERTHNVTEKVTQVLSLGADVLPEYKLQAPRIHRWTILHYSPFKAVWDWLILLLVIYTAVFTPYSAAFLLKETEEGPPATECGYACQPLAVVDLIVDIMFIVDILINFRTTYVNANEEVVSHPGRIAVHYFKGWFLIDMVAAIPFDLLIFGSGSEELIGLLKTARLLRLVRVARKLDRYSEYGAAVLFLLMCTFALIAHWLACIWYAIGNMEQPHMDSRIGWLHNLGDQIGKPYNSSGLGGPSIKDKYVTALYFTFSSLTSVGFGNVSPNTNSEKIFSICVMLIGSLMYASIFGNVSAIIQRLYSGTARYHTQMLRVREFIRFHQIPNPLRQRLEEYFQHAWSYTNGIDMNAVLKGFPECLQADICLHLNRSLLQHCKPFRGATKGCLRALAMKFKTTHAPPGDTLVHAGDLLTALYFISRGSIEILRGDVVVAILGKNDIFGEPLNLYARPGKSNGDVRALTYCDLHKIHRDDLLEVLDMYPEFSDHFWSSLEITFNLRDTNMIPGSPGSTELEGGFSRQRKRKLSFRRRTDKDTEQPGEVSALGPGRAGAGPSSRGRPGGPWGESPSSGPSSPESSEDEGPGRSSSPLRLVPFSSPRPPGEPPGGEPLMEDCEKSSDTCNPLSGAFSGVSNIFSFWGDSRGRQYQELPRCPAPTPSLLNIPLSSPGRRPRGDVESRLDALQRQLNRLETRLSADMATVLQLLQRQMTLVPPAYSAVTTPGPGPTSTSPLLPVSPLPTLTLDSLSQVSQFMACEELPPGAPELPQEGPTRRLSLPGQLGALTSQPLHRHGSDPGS

SMILES | hERG current change (%, negative = inhibition) at 10uM [%]
Cn1cc(CN2CCCCC2c2ccccn2)c(-c2ccc3c(c2)OCCO3)n1 (centres unmarked) | -7.65
Cc1ccc(-c2nonc2NC(=O)c2ccco2)cc1 | -6.58
NS(=O)(=O)c1ccc(CNC(=O)/C=C/c2cccc([N+](=O)[O-])c2)cc1 | -1.29
COc1ccc(C(=O)Nc2cccnc2)cc1 | 19
Cc1ccc(N2C(=O)CC(NNc3nc4ccccc4s3)C2=O)cc1C (centres unmarked) | 7.11
O=C(Nc1ccccc1Cl)OC1CN2CCC1CC2 (centres unmarked) | -32.9
C/C(=N\NC(=O)Cc1cccn1C)c1cccc2ccccc12 | 9.28
CCOC(=O)C1=C(c2ccccc2)NC(N)=NC1c1ccc(OCc2ccc(Cl)cc2)c(OC)c1 (centres unmarked) | -36.8
C(=N\Nc1ccccn1)/c1cccnc1 | 19.3
CCOc1ccc(N2C(=O)C(Cl)=C(Nc3ccccc3O)C2=O)cc1 | -11
Cn1c(=O)cc(SCC(=O)N2CCOCC2)c2ccc(Cl)cc21 | -11.6
COc1ccc(CNC(=O)C/C(C)=N/NC(=O)c2ccccc2OC)cc1 | -8.43
COc1ccc(C(=O)COC(=O)c2ccccc2C(=O)N(C)c2ccccc2)c(OC)c1 | -6.4
CN(C)S(=O)(=O)c1ccc(Cl)c(NC(=O)COC(=O)[C@@H]2CCCN2C(=O)c2cccs2)c1 | -8.22
CCOC(=O)c1cnc(NCc2ccccc2)nc1C | -8.74
CCOc1ccc(-c2nc(C#N)c(NCC(C)C)o2)cc1 | 7.61
COc1ccccc1C(=O)NC(=O)COC(=O)c1cnc(C)cn1 | -0.563
COc1cc([N+](=O)[O-])ccc1NC(=O)/C=C/C(=O)O | 5.95
COc1cccc(NC(=O)C(=O)NCCC2CCCCN2S(=O)(=O)c2ccccc2)c1 (centres unmarked) | 0.746

SMILES | hERG current change (%, negative = inhibition) at 10uM [%]
CN(C)CCC(c1ccccc1)c1ccccn1.O=C(O)/C=C\C(=O)O (centres unmarked) | -14.1
CN(CC(=O)NCc1ccc(F)cc1)S(=O)(=O)c1ccc(Br)s1 | -8.46
O=C(CCNC(=O)c1ccc([N+](=O)[O-])cc1)N/N=C/c1ccc(F)cc1 | -20.5
O=C1/C(=C/c2cccs2)SC(=S)N1CC(=O)N1CCCCC1CCO (centres unmarked) | -3.22
COC(=O)C(C(=O)NCC1CCCO1)C1CCCCCC1 (centres unmarked) | -9.18
COc1ccc(NC(=O)c2ccccc2C)c(OC)c1 | 2.9
COCCNC(=O)c1cccc(OC2CCN(Cc3ccccc3OC(F)F)CC2)c1 | 2.5
O=C(C1CC(=O)N(c2ccc(F)cc2)C1)N1CCC(c2nc3ccccc3[nH]2)CC1 (centres unmarked) | -63.8
O=C(CN1C(=O)NC2(CCCC2)C1=O)N1CCN(c2cccc(C(F)(F)F)c2)CC1 | -24.5
CC(=O)Nc1cccc(N/C(N)=N/c2nc(C)cc(C)n2)c1 | 4.87
COc1cccc(-c2nc(N)nc(SC)c2C#N)c1 | -2.11
O=S(=O)(c1ccccc1)C1Cc2ccccc2C1Cl (centres unmarked) | 18.3
COCCNC(=O)c1cnn2c(C(F)(F)F)cc(-c3ccc(C)cc3)nc12 | -24.1
C=CCC(NCc1ccco1)c1ccc(OC)cc1OC (centres unmarked) | -0.0621
CCCC(=O)n1nc(-c2ccccc2)nc1SC | -48.1
CCc1nnc(SCC(=O)Nc2nc(C)c(C(=O)N(C)C)s2)n1CC | 4.26
Cc1cc(OCC(=O)N(C(C)C)C(C)C)ccc1Cl | -3.57
CC1=C(C(=O)OC(C)C)C(c2ccc(N(C)C)cc2)C2=C(CC(C)(C)CC2=O)N1 (centres unmarked) | -6.8
CCS(=O)(=O)c1ccc(C(=O)NC)c(Cl)c1Cl | 3.88

SMILES | hERG current change (%, negative = inhibition) at 10uM [%]
Cc1cc(OCc2ccc([N+](=O)[O-])cc2)c2c3c(c(=O)oc2c1)CCCC3 | 9.22
COc1ccc(CCNC2=CC(=O)CC(C)(C)C2)cc1 | -21.2
COC(=O)[C@@H]1C[C@@]2(O)[C@@H](O)[C@@H](O)[C@@H](O)C[C@H]2N1CC(c1ccccc1)c1ccccc1 | 2.36
COc1ccc(CNc2ncnc3sccc23)cc1OC | 21.1
NS(=O)(=O)c1ccc(CCNC(=O)CSc2nc3ccsc3c(=O)n2CC(=O)O)cc1 | 0.557
CCCCCCCSc1nnc(-c2ccccc2N)c(=O)[nH]1 | 6.86
COc1ccc(CCNc2nc(N3CCOCC3)nc(N3CCOCC3)n2)cc1OC | 3.45
O=C(COc1ccccc1[N+](=O)[O-])NNC(=O)Nc1cccc2ccccc12 | 14.9
Cc1ccccc1C(=O)NNC(=O)CSc1nc2ccccc2c(=O)[nH]1 | 10.5
Cc1ccccc1OCC(=O)NNC(=S)NC(=O)c1ccccc1[N+](=O)[O-] | 1.05
COCCn1c(N)c(N(Cc2ccccc2)C(=O)CN2C(=O)NC(C)(c3ccccc3)C2=O)c(=O)[nH]c1=O (centres unmarked) | 12.5
CN(C)/C=C/C(=O)c1ccc(N2CCN(c3ncc(C(F)(F)F)cc3Cl)CC2)cc1 | -6.08
COc1cc(C(=O)NCC(C)C)c([N+](=O)[O-])cc1OC | 12.5
O=C1CCCC(=O)C1=C1SCCS1 | -3.42
CCOc1ccc(N(CC(=O)NCc2ccc(Cl)cc2)S(=O)(=O)c2c(C)noc2C)cc1 | 12.1
Clc1ccc(-c2nn3cnnc3s2)c(Cl)c1 | -13.6
O=C(CSc1nc2ccccc2n1Cc1ccccc1)N/N=C/c1ccccc1C(=O)O | -0.979
O=C(NCCN1CCOCC1)c1ccc2c(c1)N(Cc1cccc(F)c1)C(=O)c1ccccc1S2 | -19
